Source: PubChem BioAssay AID1865 (National Center for Advancing Translational Sciences (NCATS), 2009)
Among all 280,000 compounds or so, about 540 (0.19%) were called active. The inconclusive results got no clear call from the source; some entries with a clear call stand among them for comparison. Calls come from the whole dose curve; as a rule, active = well fitted activation curve with a large enough effect; inconclusive = small, poorly fitted or top-dose-only effect; inactive = flat fitted curve, though single readings scatter. A potency beside an inconclusive call is a rough fit, not a confirmed value.

Assay: Quantitative High-Throughput Screen for Regulators of Epigenetic Control; note: nearly all actives have a fitted effect of over 60% in size; for GFP activation: % of control where 0% means no effect
Conditions: murine LDR cells, GFP reporter derepression, 30 h; GFP activation: at 53.9 µM (top of the series)
How it was run: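 Readout is the number of GFP-expressing murine LDR cells, counted by cytometry following washing. Cells were treated with compound for 30 h at 37 C; the stably integrated CMV-GFP locus is normally silent.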
Potency is the fitted concentration of half-maximal effect; tags give direction and shape of the fitted curve.

Row | Compound | Potency | GFP activation
1 | Brc1cc2c(cc1/C=N/Nc1nc3ccccc3s1)OCO2 | inconclusive: 25.1 µM [activator, single point] | 
2 | CCC1CN(S(=O)(=O)c2cc(-c3cc(C)no3)ccc2OC)c2cc(C)ccc2O1 (stereo unspecified) | inconclusive: 35.5 µM [activator, single point] | 
3 | CC1(C(=O)NC(=S)NNC(=O)c2ccncc2)CCCCC1 | inconclusive: 20 µM [activator, single point] | 
4 | COc1cc(/C=C\C(=O)N2CCC=CC2=O)cc(OC)c1OC | inconclusive: 2.82 µM [activator, single point] | 
5 | Cc1ccc2cc(C(c3nnnn3Cc3ccccc3)N3CCc4ccccc43)c(=O)[nH]c2c1C (stereo unspecified) | inconclusive: 35.5 µM [activator, single point] | 
6 | Cc1cc(Sc2nc(N)ncc2[N+](=O)[O-])ncn1 | inconclusive: 6.31 µM [activator, single point] | 
7 | COc1ccc(CCNC(=O)CSc2ncc3c(n2)-c2cc(Cl)ccc2N(Cc2ccccc2)S3(=O)=O)cc1OC | inconclusive: 35.5 µM [activator, single point] | 
8 | Cc1ccc(-n2c(=O)c3cccnc3n2CC(=O)Nc2cccc(C)c2C)cc1 | inconclusive: 35.5 µM [activator, single point] | 
9 | Oc1ccc(Cl)c2cccnc12 | inconclusive: 25.1 µM [activator, single point] | 
10 | Cn1cc(Br)c(C(=O)Nc2nccs2)n1 | inconclusive: 0.126 µM [activator, full curve, poor fit] | 
11 | CCOC(=O)c1ccc(N=C2NC(=O)CS2)cc1 |  | inactive: -1.08%
12 | CCOC(=O)c1cnc(Nc2nc3ccccc3o2)nc1CSC(=S)N1CCCCC1 | inconclusive: 15.8 µM [activator, single point] | 
13 | S=C(NCCN1CCOCC1)N/N=C/c1c2ccccc2cc2ccccc12 | inconclusive: 35.5 µM [activator, single point] | 
14 | Nc1nc(-c2ccc(Cl)cc2)nnc1-c1ccc(Br)cc1 | inconclusive: 35.5 µM [activator, single point] | 
15 | O=C(O)CCC(=O)N1CCCC1C(=O)O (stereo unspecified) | inconclusive: 6.31 µM [activator, single point] | 
16 | O=C(NCc1ccco1)/C(=C\c1ccco1)NC(=O)c1ccc(Br)o1 |  | inactive: 0%
17 | O=C(O)CCc1ccc(-c2ccc(Br)cc2)o1 | inconclusive: 17.8 µM [activator, single point] | 
18 | Cc1nnc(N2CCCC(C(=O)Nc3ccccc3C(F)(F)F)C2)c2nn(-c3ccccc3)c(C)c12 (stereo unspecified) | inconclusive: 35.5 µM [activator, single point] | 
19 | CCCCCCCCCCn1c2c(c(=N)c3c1CCC3)CCC2 |  | inactive: -0.855%
20 | CC(C)Cn1c(=O)c2sccc2n2c(CCCC(=O)NCC(C)c3ccccc3)nnc12 (stereo unspecified) |  | inactive: -0.0772%
21 | CN1C/C(=C\c2ccc(N3CCOCC3)cc2)C(=O)/C(=C/c2ccc(N3CCOCC3)cc2)C1 | inconclusive: 31.6 µM [activator, single point] | 
22 | O=C(/C=C/c1ccccc1Cl)c1cccnc1 | inconclusive: 31.6 µM [activator, single point] | 
23 | CC(=O)N1CCN(S(=O)(=O)c2c(F)cc(F)c(Cl)c2F)CC1 | inconclusive: 20 µM [activator, single point] | 
24 | Cc1ccc(C(=O)c2nocc2C(=O)c2cccs2)cc1 | inconclusive: 5.62 µM [activator, single point] | 

Row | Compound | Potency | GFP activation
25 | C[C@@H](c1ccccc1)N1C(=O)[C@H]2[C@H]3[C@H](O)[C@H](O)C/C(=N/OCc4ccccc4)[C@H]3CC[C@@H]2C1=O |  | inactive: 3.41% [at 10.1 µM]
26 | COc1ccccc1NC(=O)Cn1c(=O)n(-c2ccc(C)cc2)c(=O)c2ccc(C(=O)NCc3ccco3)cc21 | inconclusive: 25.1 µM [activator, single point] | 
27 | CCn1nnc(NC(=O)c2cc(Cl)c(OC)c(Cl)c2)n1 | inconclusive: 3.55 µM [activator, single point] | 
28 | COc1ccccc1-c1nnc(SCCOc2ccccc2C)o1 |  | inactive: -3.23%
29 | CCOC(=O)c1ccc(N2CCN(c3cccc(Cl)c3)CC2)c(NC(=O)Nc2ccc(OC)cc2OC)c1 |  | inactive: 1.18%
30 | Cc1ccccc1-c1cncnc1NCCN1CCOCC1 | inconclusive: 35.5 µM [activator, single point] | 
31 | O=C(CC(c1cccs1)N1Cc2ccccc2C1=O)Nc1ccc(F)c(Cl)c1 (stereo unspecified) | inconclusive: 14.1 µM [activator, single point] | 
32 | CCOC(=O)CSc1nc2ccccc2c(=O)n1CCc1ccc(OC)c(OC)c1 |  | inactive: -1.3%
33 | Cc1cccc(NC(=S)N=Nc2c(O)n(CN3CCOCC3)c3ccccc23)c1C | inconclusive: 31.6 µM [activator, single point] | 
34 | Cc1csc(N/N=C/c2ccccn2)n1 | inconclusive: 25.1 µM [activator, single point] | 
35 | O=C(CSc1cccc[n+]1[O-])c1ccc(-c2ccccc2)cc1 | inconclusive: 25.1 µM [activator, single point] | 
36 | CCN1C(=O)/C(=C2/Sc3ccc(OC)cc3N2C)SC1=Nc1cccc(O)c1 | inconclusive: 22.4 µM [activator, single point] | 
37 | CN(C)[C@@H](CO)c1nnc([C@H](Cc2ccc(O)cc2)NC(=O)C2CCNCC2)o1 | inconclusive: 3.55 µM [activator, single point] | 
38 | O=C(Cc1cccc2ccccc12)N1CCCc2ccccc21 |  | inactive: -0.862%
39 | O=C(Nc1ccc(Cl)cc1)c1cc2nc(-c3ccco3)cc(C(F)(F)F)n2n1 | inconclusive: 25.1 µM [activator, single point] | 
40 | CSc1nsc(/C=C/Nc2ccc(F)cc2)c1C#N | active: 10 µM | 
41 | CCN(CC)c1ccc(/C=C/c2nc3ccccc3s2)cc1 | inconclusive: 31.6 µM [activator, single point] | 
42 | N#Cc1cc(S(=O)(=O)c2ccc(Cl)cc2)c(N)[nH]c1=O |  | inactive: -5.64%
43 | COc1ccc(CCNc2ccc(C(CC(N)=O)NC(=O)c3ccccc3)cc2[N+](=O)[O-])cc1 (stereo unspecified) | inconclusive: 31.6 µM [activator, single point] | 
44 | Cc1c(-c2ccc(O)cc2)nc2nc(-c3ccccc3)c(-c3ccccc3)nn12 | inconclusive: 0.447 µM [activator, full curve, poor fit] | 
45 | COc1cccc(-c2ccc3c(N)c(C(=O)NCc4ccc(Cl)cc4)sc3n2)c1 | inconclusive: 35.5 µM [activator, single point] | 
46 | S=c1[nH]nc(-c2ccncc2)n1/N=C/c1cccc2ccccc12 |  | inactive: 0.0818%
47 | Cc1cc(C2C(C#N)=C(N)Oc3n[nH]c(C)c32)c(C)s1 (stereo unspecified) | inconclusive: 28.2 µM [activator, single point] | 
48 | Cc1ccc(S(=O)(=O)NCCN2CCOCC2)cc1 |  | inactive: -0.301%

Row | Compound | Potency | GFP activation
49 | COCCNC(=S)N1CCN(C/C=C/c2ccccc2)CC1 |  | inactive: -0.312%
50 | CCCCn1c(NC(=S)Nc2ccccc2)nc2ccccc21 | inconclusive: 35.5 µM [activator, single point] | 
51 | COc1ccc(/C=c2\sc3nc(=O)c(C)nn3c2=O)c(OC)c1 | inconclusive: 14.1 µM [activator, single point] | 
52 | CCCC(=NCCc1c(C)[nH]c2ccccc12)C1=C(O)CC(c2ccccc2)CC1=O (stereo unspecified) |  | inactive: 1.89%
53 | Cc1cc(/C=C2\Sc3ccccc3N2C)cc(C)[n+]1CC1CCCO1 (stereo unspecified) | inconclusive: 28.2 µM [activator, single point] | 
54 | Cc1ccc(-n2nc(CO)c(C(=O)NCCCCc3ccccc3)n2)cc1 |  | inactive: 17.5%
55 | Cc1ccc2c(c1)C(=O)C(=O)N2Cc1ccc(OC(C)C)cc1 |  | inactive: 4.84%
56 | COc1ccccc1NC(=O)c1coc(=O)c(Br)c1 | inconclusive: 25.1 µM [activator, single point] | 
57 | Cc1cc(=S)c2ccccc2[nH]1 |  | inactive: 0.224%
58 | Nc1c(CO)nnn1-c1ccccc1 |  | inactive: -0.0755%
59 | COc1ccc(Cn2ccnc2SCC(=O)Nc2cc(C(F)(F)F)ccc2Cl)cc1 |  | inactive: 0%
60 | COc1ccc(-c2cc(N)n(S(=O)(=O)c3c(F)c(F)c(F)c(F)c3F)n2)cc1OC | inconclusive: 5.62 µM [activator, single point] | 
61 | COc1ccc2c(c1)CC[C@@H]1[C@@H]2CC[C@]2(C)[C@@H](NCCCCCCN3C(=O)C=CC3=O)CC[C@@H]12 |  | inactive: 13.7%
62 | CCOc1ccc2cc(C#N)c(SCC(=O)OC)nc2c1 | inconclusive: 22.4 µM [activator, single point] | 
63 | CCn1nc(NC(=O)c2ccccn2)c2cc3cccc(C)c3nc21 | inconclusive: 35.5 µM [activator, single point] | 
64 | O=c1[nH]sc2ccccc12 | inconclusive: 2.82 µM [activator, partial curve] | 
65 | Cc1cc(C(F)F)n2nc(C(=O)Nc3ccc(F)cc3F)nc2n1 |  | inactive: 1.96%
66 | O=S(=O)(Nc1cccc2nsnc12)c1ccccc1 | inconclusive: 6.31 µM [activator, single point] | 
67 | CCCC(=O)Nc1c2c(nc3ccccc13)N(c1ccccc1)CC2 |  | inactive: 11.5%
68 | O=C1/C(=C/c2cccnc2)CCC/C1=C\c1cccnc1 | inconclusive: 6.31 µM [activator, single point] | 
69 | O=C(Cc1ccccc1)NC(NC(=S)Nc1cc(Cl)ccc1Cl)C(Cl)(Cl)Cl (stereo unspecified) | inconclusive: 35.5 µM [activator, single point] | 
70 | Cc1cccc(OCCSc2nc3ccc(NC(=O)c4cccs4)cc3s2)c1 |  | inactive: 5.34%
71 | CC(C)(C)c1ccc(S(=O)(=O)NC(Cc2ccccc2)C(=O)O)cc1 (stereo unspecified) | inconclusive: 0.141 µM [activator, partial curve, poor fit] | 
